Screen size: about 310,000 compounds; about 2,200 (0.71%) showed an effect of 50% or more. The effect is printed as a negative number. The list shows a part of the results.
What follows are compounds tested against human ether-à-go-go-related gene (hERG) potassium channel (human, UniProt Q12809) (assay: primary screen, population patch clamp on CHO cells stably expressing hERG).
human ether-à-go-go-related gene (hERG) potassium channel, sequence (Q12809 whole entry, looked up): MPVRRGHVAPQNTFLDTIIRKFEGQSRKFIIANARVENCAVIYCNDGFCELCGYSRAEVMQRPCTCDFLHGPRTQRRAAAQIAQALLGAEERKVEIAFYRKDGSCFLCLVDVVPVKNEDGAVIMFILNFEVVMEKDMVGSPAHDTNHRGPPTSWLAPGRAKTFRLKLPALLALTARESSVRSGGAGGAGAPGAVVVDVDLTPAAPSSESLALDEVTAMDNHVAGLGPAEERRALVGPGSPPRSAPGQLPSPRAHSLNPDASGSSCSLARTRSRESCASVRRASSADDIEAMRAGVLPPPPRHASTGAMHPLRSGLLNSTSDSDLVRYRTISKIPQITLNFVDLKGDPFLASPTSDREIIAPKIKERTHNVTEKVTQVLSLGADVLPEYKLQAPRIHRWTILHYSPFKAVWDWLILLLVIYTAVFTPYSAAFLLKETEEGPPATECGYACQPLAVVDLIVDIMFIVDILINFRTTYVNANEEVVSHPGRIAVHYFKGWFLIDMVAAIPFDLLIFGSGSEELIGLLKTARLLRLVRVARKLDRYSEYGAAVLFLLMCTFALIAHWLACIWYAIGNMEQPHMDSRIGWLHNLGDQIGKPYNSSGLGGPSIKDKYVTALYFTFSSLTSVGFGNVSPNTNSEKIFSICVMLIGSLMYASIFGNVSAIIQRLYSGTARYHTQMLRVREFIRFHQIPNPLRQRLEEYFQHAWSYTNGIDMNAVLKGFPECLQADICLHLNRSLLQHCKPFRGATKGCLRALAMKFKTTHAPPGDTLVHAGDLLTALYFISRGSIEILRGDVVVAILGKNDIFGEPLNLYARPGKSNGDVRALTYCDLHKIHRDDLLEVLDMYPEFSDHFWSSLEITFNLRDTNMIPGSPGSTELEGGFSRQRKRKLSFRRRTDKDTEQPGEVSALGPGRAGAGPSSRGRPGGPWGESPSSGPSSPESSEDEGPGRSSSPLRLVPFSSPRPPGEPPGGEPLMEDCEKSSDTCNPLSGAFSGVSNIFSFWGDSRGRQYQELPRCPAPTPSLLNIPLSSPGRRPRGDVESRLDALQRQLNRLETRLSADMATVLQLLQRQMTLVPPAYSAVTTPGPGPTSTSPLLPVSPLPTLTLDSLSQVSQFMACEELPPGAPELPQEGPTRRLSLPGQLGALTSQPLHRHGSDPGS

SMILES | hERG current change (%, negative = inhibition) at 1uM
COc1ccc(C(=O)N/C(=C/c2ccc(Cl)cc2)C(=O)NCc2ccncc2)cc1 | -38.4%
Cc1nc[nH]c(=O)c1Br | 13.3%
CCc1nc(C)ccc1OCC(=O)O.Cl | -0.733%
CC(=O)/C(=N\Nc1ccc(C)cc1)Sc1nncn1C | -0.286%
CCCC(c1nnnn1CCc1ccccc1)N1CCN(C2CCCC2)CC1 (centres unmarked) | -15.5%
O=C(Nc1ccccc1Cl)c1cc(=O)c2ccccc2o1 | 16.4%
COc1cccc(NC(=O)CN(C)C(C)C(=O)N2CCCC2)c1 (centres unmarked) | 1.28%
COc1cc(/C=C/C(=O)OCN2C(=O)c3ccccc3C2=O)ccc1OC(F)F | 2.75%
Cc1cccc(NS(=O)(=O)c2c(C(=O)N3CCCC3)c(C)n(C)c2C)c1 | 16%
CC(=O)OC1N=C(c2ccccc2Cl)c2cc(Br)ccc2NC1=O (centres unmarked) | -1.45%
CCc1cc2cc(C)ccc2nc1SCC(=O)N1CCN(C(=O)c2ccco2)CC1 | -4.38%
CCC(=O)Nc1nc(C)c(-c2csc(Nc3cccc(C(=O)O)c3)n2)s1 | -6.02%
CN(C)c1ccc(CNn2cnnc2)cc1 | -4.49%
Cc1ccc2oc(=O)c3cnn(CC(=O)Nc4ccccc4N4CCN(C)CC4)c3c2c1 | 11.4%
CN(C)S(=O)(=O)c1cccc(NC(=O)COC(=O)/C=C/c2ccc(Br)o2)c1 | -1.91%
O=S1(=O)CC2(N3CCOCC3)CCCCCCC21 (centres unmarked) | 9.96%
CC(C)(C)NC(=O)NC(=O)COC(=O)c1nc(-c2ccccc2)n(-c2cccc(C(F)(F)F)c2)n1 | 10.1%
COc1ccc(NC(=O)N2CCCC2C(=O)NCc2cccs2)cc1 (centres unmarked) | 11.6%
COc1ccc2c(c1)[n+](=O)c(C(C)=O)c(C)n2[O-] | 16%
O=C(Oc1nsnc1N1CCOCC1)N(c1ccccc1)c1ccccc1 | -5.59%
COc1cc(C)ccc1OCCOCCOc1ccc(C)cc1[N+](=O)[O-] | 5.47%
O=[N+]([O-])c1ccccc1NCCOc1ccccc1 | 13%
CCc1nnc(NC(=O)C2=NN(C3CCS(=O)(=O)C3)C(=O)CC2)s1 (centres unmarked) | 17.5%

SMILES | hERG current change (%, negative = inhibition) at 1uM
O=C(O)c1cc(NS(=O)(=O)c2cccs2)cc(NS(=O)(=O)c2cccs2)c1 | 7.24%
CCCCNC(=S)NCCN1CCN(C(=S)NCCCC)CC1.Cl | -0.0402%
Cc1cc(C(=O)NCc2cccs2)nn1C | 11.1%
Cc1cc(NS(=O)(=O)Cc2ccccc2)cc(C)c1OCC(=O)N1CCOCC1 | 1.1%
CCOc1ccc(C2c3c(oc4ccccc4c3=O)C(=O)N2CCCN2CCOCC2)cc1OCC (centres unmarked) | 6.43%
CCc1ccc(/C=C(\Cl)c2nc3cc(Cl)ccc3c(=O)[nH]2)cc1 | 11.6%
Cc1cccc(C)c1NC(=O)CCCn1nc(C)c2c(C)n(-c3ccccc3)nc2c1=O | 14.3%
O=C(O)c1[nH]c2ccccc2c1CC(=O)N1CCOCC1 | 11.1%
CN1CCN(S(=O)(=O)c2ccc(NC(=O)c3cccs3)cc2)CC1 | -3.17%
Cc1nn(-c2ccccc2)c(C)c1NC(=O)COc1ccc([N+](=O)[O-])cc1 | -30.3%
O=C(/C=C/Nc1ccc(F)cc1F)c1ccc(Br)cc1 | 14.5%
CN(CCN1CCOCC1)C(=O)CC1C(=O)NCCN1Cc1ccccc1C(F)(F)F (centres unmarked) | 14.1%
Cn1c(SCC(=O)Nc2ccc3nc(SCC(=O)N4CCCC4)sc3c2)nnc1-c1ccccc1 | 14%
CNC(=O)NC(=O)CN1C(=O)NC2(CCOc3ccccc32)C1=O (centres unmarked) | 13.4%
O=C(CN1C(=O)C2(OCCO2)c2ccccc21)c1ccc(Cl)cc1 | -2.77%
CC(C)N1CCN(CC2COc3ccccc3O2)CC1.Cl (centres unmarked) | -0.358%
CCOCCCNC(=S)Nc1ccc2nc(N3CCOCC3)cc(C)c2c1 | 9.64%
CCOC(=O)c1ccc(OC)c(OC)c1Cl | 12.9%
COCCCN(C(=O)Nc1cccc(Cl)c1)C(C)c1ccccn1 (centres unmarked) | 15.9%
CCC1(C)COC(C)(CC(=O)NNC(=O)Nc2ccccc2)OC1 (centres unmarked) | 3.32%
COc1ccc(N2CCN(C(=O)c3ccc(NS(=O)(=O)c4cccc(F)c4)cc3)CC2)cc1 | -7.54%
COc1cc(Br)c(Br)c(Br)c1N | 12.2%
CCOc1ccc(C(OC(=O)c2ccco2)C(=O)NCc2ccc(C)cc2)cc1 (centres unmarked) | 14.8%

SMILES | hERG current change (%, negative = inhibition) at 1uM
Cc1cccc(NC(=O)NCC2CC2)c1 | 11.3%
COc1ccc(C(=O)CSc2nnc(CNC(=O)c3ccccc3)n2C)cc1 | 10%
Cc1cc(C)cc(OCC(=O)Nc2cc(NC(=O)COc3cc(C)cc(C)c3)cc(C(=O)O)c2)c1 | 11.8%
COc1ccccc1/C=C/C(=O)NCC(=O)N/N=C/c1ccccc1 | 8.62%
CCCN(CCC)C(=O)C1c2ccccc2Oc2ccccc21 | 13.6%
CCOC(=O)c1c(-c2ccc(C)c(C)c2)csc1NC(=O)C1CC=CCC1C(=O)O (centres unmarked) | 9.37%
CCc1ccc(NC(=O)Cn2nc(C(F)(F)F)c3c2CCC3)cc1 | 8.29%
O=C(/C=C/c1ccc2c(c1)OCCO2)c1ccccc1 | 0.833%
O=C(N/N=C/c1ccc(O)cc1)c1cc(C23CC4CC(CC(C4)C2)C3)[nH]n1 | 6.63%
COc1cc(OC)cc(C(=O)NC2CCSc3ccccc32)c1 (centres unmarked) | 13.7%
Cc1nc(NS(=O)(=O)c2cccs2)c2c3c(sc2n1)CCC3 | 12.5%
O=C(COc1ccc(S(=O)(=O)NCc2ccccc2)cc1Cl)NCc1ccncc1 | 16.6%
CC(=O)Nc1ccc(C(=O)NCC(=O)OCc2ccccc2F)cc1 | 10.2%
CCc1nnc(NC(=O)c2ccc(S(=O)(=O)N3CCCC(C)C3)cc2)o1 (centres unmarked) | 14.5%
CCCNC(=O)c1ccccc1NC(=O)c1cccc(-n2cnnn2)c1 | -2.11%
CCOc1ccccc1NC(=O)CSc1n[nH]c(=O)n1-c1ccccc1 | 14.8%
Cc1cccc(N2CCN(S(=O)(=O)c3ccc4c(c3)NC(=O)C(C)S4)CC2)c1C (centres unmarked) | 11.1%
O=C(O)CCCC(=O)N1N=C(c2ccccc2)CC1c1ccc2nccnc2c1 (centres unmarked) | 7.53%
C=CCSc1nc2c(cnn2-c2ccc(C)c(C)c2)c(=O)[nH]1 | 5.69%
CC(C)Oc1ccc(S(=O)(=O)N2CCOCC2)cc1NC(=O)C1=COCCO1 | 11%
CN(C)c1ccc(NC2=C(Cl)C(=O)c3ccccc3C2=O)cc1 | 18%
O=C1COc2ccc(C(=O)COC(=O)Cc3ccccc3)cc2N1 | 10%
O=C(O)c1ccc(-c2ccco2)n1Cc1ccccc1 | 10.2%

SMILES | hERG current change (%, negative = inhibition) at 1uM
Cc1ccc(/C=N/N2CCCCC2)o1 | 11.7%
CC1=C(C#N)C(NC(=O)c2ccc(Cl)cc2)(C(F)(F)F)C(=O)N1 (centres unmarked) | -1.43%
COc1ccc(Cl)cc1NC(=O)CN1CCN(Cc2ccccc2)CC1 | -32%
COCCOc1ccc(C(F)(F)F)cc1NC(=O)c1ccc(F)cc1 | 8.11%
CCOC(=O)c1c(-c2cccs2)csc1NC(=O)CN1CC(C)OC(C)C1 (centres unmarked) | -1.73%
Cn1nc(C(=O)N2CCCC2)c2ccccc2c1=O | 18.6%
CCOC(=O)c1ccc(NC(=O)CN2C(=O)C(=O)N(CC(C)C)C2=O)cc1 | 1.53%
CC1(C)C(C#N)=C(N)Oc2c1c(=O)oc1ccccc21 | -1.73%
Cc1cc(C(F)(F)F)c2sc(N)nc2n1 | 8.91%
CCOC(=O)C1CCCN(c2c(NCCN(CC)c3ccccc3)c(=O)c2=O)C1 (centres unmarked) | -5.33%
Cc1ccc(CN2CCCN(Cc3cc(C)ccc3C)S2(=O)=O)cc1 | 13.8%
CC(NC(=O)c1ccccc1C(=O)O)c1ccc(-n2ccnc2)cc1 (centres unmarked) | 5.44%
COc1ccc(C(c2nnnn2Cc2cccs2)N2CCC(C(N)=O)CC2)c(OC)c1 (centres unmarked) | 2.25%
CCc1c(O)nc(SCC(N)=O)n(-c2ccccc2F)c1=O | 6.17%
CCC(Cc1ccccc1)NC(=O)C1CC1 (centres unmarked) | 13.2%
Cc1ccc(S(=O)(=O)c2nc(S(C)(=O)=O)sc2N(C)C)cc1 | 13.3%
O=C(CN1C(=O)NC2(CCCCCC2)C1=O)c1ccc(OC(F)F)cc1OC(F)F | 4.56%
Cc1ccnc(SCC(=O)c2cccs2)n1 | 9.86%
COc1cc(CNC2CCCCC2)c(Br)cc1OC1CCCC1 | 4.44%
CC(NC(=O)C(=S)N1CCN(C)CC1)c1ccccc1 (centres unmarked) | 8.9%
COC(=O)c1ccc(S(=O)(=O)N2CCCCC2)o1 | 9.93%
COc1ccc2c(CC(=O)Nc3c(C)n(C)n(-c4ccccc4)c3=O)coc2c1 | 20.1%
Cc1ccc(C2(C)NC(=O)N(CC(=O)Nc3cc(S(=O)(=O)N4CCOCC4)ccc3C)C2=O)cc1 (centres unmarked) | -9.42%

Source: paper PMC4336329 (PLoS ONE, 2015)
